According to publication PMC12136788:
This is one part of the list.

B1: chr7:141438946:141438947:+_ENSG00000106028_ENST00000265304|hu_mus|hu_hu_hu_mus_True|1_98 (ssRNA)
RNA: GGGAGUUCUACAGUCCGACGAUCGACGAAAUACCUGACAGGUCUUCCUUCGAAACAUGGCUUCUGUUUUUCUUACAACCUAAUCUUUAGGCUUUUCCUAAAGGAAAGAAAGAAAAGAGAAAAAUGAUAAAUCAAGAACUUCCGCAACAGAGGAUUGAGCAUCA
B2: chr3:179287964:179287965:+_ENSG00000136518_ENST00000429709|hu_hu|hu_hu_hu_mus_True|78_78 (ssRNA)
RNA: GGGAGUUCUACAGUCCGACGAUCCUUGAGUGGUGAGAUGGCCUCCAUGUUCUCCCUCGGAACACGCAGGGCAUUGGUGUCUAUGUAGUAGGUGGGCCCGCCCUGCUUGCCUUUGUCACCAUCAAUCUCCAUCAUUGUACUUCCCAACAGAGGAUUGAGCAUCA
B3: chr13:30959905:30959906:-_ENSMUSG00000021357_ENSMUST00000021785|mus_hu|FALSE|FALSE (ssRNA)
RNA: GGGAGUUCUACAGUCCGACGAUCAUGGAUACUUCCAAACAAGUCAGGGGAAGAAACAUCAACAGAGAGAUGUGUAGUAUCUAUAUCUGCAUCAGGCUUGGUGCUCAACUGUUCCAGACAGUAUAUAAAAACCUGCAUUAUAUUCAACAGAGGAUUGAGCAUCA
B4: chr12:73313434:73313435:-_ENSMUSG00000021087_ENSMUST00000021497|mus_hu|FALSE|FALSE (ssRNA)
RNA: GGGAGUUCUACAGUCCGACGAUCAAAUAUCCUAAGAGUACAAGGAACAGCCUAAAAACAGCUGUUUUAAGGUUUGUCUCUAAGAUUAUGGUACUGGAGGGAGGGGGGAAAGACAAUCAAUUUGCAGUAAUGAGUAAGAAGAGACAACAGAGGAUUGAGCAUCA
B5: chr3:160143891:160143892:+_ENSG00000113810_ENST00000344722|hu_mus|FALSE|FALSE (ssRNA)
RNA: GGGAGUUCUACAGUCCGACGAUCAGUAAGAACGUUAGCUUCCAGUUCUUUAAUUUGUACACACAGAUACUCUUCUUGCUCUGAUAAGCCCUGGAUGCUUGCAGCGAACUUUUCCAGUGUAUUUCUCAUGUCUCGUUCACUGUGCAACAGAGGAUUGAGCAUCA
B6: chr7:54825262:54825263:-_ENSG00000132432_ENST00000352861|hu_hu|hu_hu_hu_mus_False|48_88 (ssRNA)
RNA: GGGAGUUCUACAGUCCGACGAUCCUGCCGGCUGGGCUCCACAAACUUUACCUGAUCAUCCAUGUUUGUUGGAUGGCGGAUUGAGAGUGCCAGGGACCGUAGCUCAGGAGAGAACCGAGCCCAACGGAACCGGAAGCUGGCAACCAACAGAGGAUUGAGCAUCA

Target: T1, UNK ZnF1-3 (human, UniProt Q9C0B0 31-174)
T1 sequence: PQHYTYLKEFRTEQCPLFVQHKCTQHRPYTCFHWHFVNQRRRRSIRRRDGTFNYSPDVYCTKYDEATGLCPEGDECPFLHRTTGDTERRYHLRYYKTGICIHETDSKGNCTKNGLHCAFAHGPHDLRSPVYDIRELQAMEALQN
Test: nsRBNS (natural sequence RNA bind-n-seq); RBNS binding buffer (assumed for nsRBNS): 25 mM Tris pH 7.5, 150 mM KCl, 3 mM MgCl2, 0.01% Triton X-100, 500 ug/ml BSA, 20 U/ml SUPERase-In, 4 C; UNK is unkempt and MSI1 is Musashi-1; names of the RNAs are library labels; protein concentration not given here; high values mean tight binding

Binder | binding signal [enrichment R]
B1 | 0.779
B2 | 0.398
B3 | 0.968
B4 | 2.1
B5 | 0.409
B6 | 1.07
